# Laboratory results published in PubChem BioAssay AID485313 (National Center for Advancing Translational Sciences (NCATS), 2010).
# Among all 320,000 compounds or so, about 7,600 (2.4%) were called active. This list was built around the results that the source calls inconclusive (neither active nor inactive); the mix of calls is not that of the screen. Calls come from the whole dose curve; as a rule, active = well fitted activation curve with a large enough effect; inconclusive = small, poorly fitted or top-dose-only effect; inactive = no such curve, though single readings can be large or run the other way. Potencies of inconclusive entries are left out as doubtful fits.
# Assay: qHTS Assay for NPC1 Promoter Activators; note: nearly all actives have a fitted effect of over 60% in size;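 for activation: reporter is driven by a mutant NPC1 promoter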
# Conditions: Huh7 NPC1 promoter luciferase reporter, 24 h; series mostly up to 9.22 µM
# How it was run: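 Compounds in DMSO were transferred onto Huh7 NPC1-luciferase reporter cells pre-incubated 2 h; after 24 h at 37 °C, Amplite reagent was dispensed and luminescence recorded 10 min later.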
# Potency is the fitted concentration of half-maximal effect; tags give direction and shape of the fitted curve.
row,Structure (SMILES),Potency
1,CC(C)(C)C(=O)Nc1ccc(-c2cc3cc(Cl)ccc3o2)cc1,"inconclusive [activator, partial curve]"
2,CN(C)/C=C1\C(=O)N(c2ccc([N+](=O)[O-])cc2)N=C1c1ccccc1,"inconclusive [activator, partial curve]"
3,CCCCc1ccc(Nc2ncnc3nc[nH]c23)cc1,"inconclusive [activator, partial curve]"
4,Nc1ccc2oc(-c3ccccn3)nc2c1,"inconclusive [activator, partial curve]"
5,C/C(=N\NC(=O)c1nnn(-c2nonc2N)c1C(C)C)c1ccc2ccccc2c1,inactive
6,CCOC(=O)c1cnn(-c2cc(C)nc3c(-c4ccccc4)c(C)nn23)c1N,inactive
7,CS(=O)(=O)CC(=O)Nc1ccc2nc3n(c(=O)c2c1)CCCCC3,inactive
8,CCOC(=O)c1ccc(NC(=S)NNC(C)(C)C)cc1,"inconclusive [activator, single point]"
9,CCOc1ncccc1C(=O)Nc1ccc(-c2cn3ccsc3n2)cc1,inactive
10,COc1ccc(OCC(=O)Nc2cc(OC)cc(OC)c2)cc1,inactive
11,CC(=O)Nc1ccc(Nc2cc(C)nc3c(-c4ccc(Cl)cc4)cnn23)cc1,active: 2.24 µM
12,CCCOc1ccc(-c2nnc(-c3ccco3)o2)cc1,active: 0.501 µM
13,COc1ccc(Nc2oc(-c3ccc(OC)cc3)nc2C#N)cc1,"inconclusive [activator, single point]"
14,O=C(O/N=C1/CCCc2occc21)c1ccc(Cl)cc1Cl,inactive
15,O=C(/C=C/c1ccccc1Cl)NCCc1ccccc1,"inconclusive [activator, single point]"
16,CCc1sc(C(=O)Nc2cccnc2)cc1Br,"inconclusive [activator, single point]"
17,Cc1cccc2[nH]c(-c3ccc(NC(=O)c4ccco4)cc3)nc12,active: 2.24 µM
18,CN(C)C=Nc1ncc2c([nH]c3ccccc32)c1C#N,"inconclusive [activator, single point]"
19,C=CCOc1c(CNc2cccc(C(=O)O)c2)cccc1OC,"inconclusive [activator, partial curve]"
20,Cc1nc(NC(=O)c2oc3ccccc3c2C)sc1C(=O)N(C)C,"inconclusive [activator, partial curve]"
21,Cc1ccc(NS(=O)(=O)c2c(C)[nH]c(C)c2C(=O)N2CCCCC2)cc1F,inactive
22,Cn1c(SCc2ccccc2)nnc1-c1ccc(O)cc1,"inconclusive [activator, partial curve]"
